Measured values from PubChem BioAssay AID1362 (SRMLSC, 2008).
The list shows a part of the results. Further columns of the screen follow, without active or inactive calls. Most of these compounds were active or inconclusive in the main read-out, so they are no random draw.

Experiment: growth inhibition of WT strain, primary screen, mitochondrial fusion inhibitor project, WT and mutant strains, chemical genetic (AID 1362); also: tested in S. cerevisiae
Details: mitochondrial fusion phenotypic screen, at 10 µM

Compound	inhibition
CN(C(=O)c1ccc(COc2ccccc2Br)o1)c1ccccc1	28.1%
C/C(=N\Nc1cccc2cccnc12)c1ccc(C)cc1	71.7%
O=C1OC(c2ccc(F)cc2)=C/C1=C\c1ccc([N+](=O)[O-])o1	65.5%
CN(CC(=O)O/N=C(\N)c1cccc([N+](=O)[O-])c1)S(=O)(=O)c1ccccc1	-52.8%
CCN(CC)CCNC(=O)Cn1c(-c2ccccn2)nc2ccccc21	-37.8%
O=C(Nc1nc(COc2ccccc2)cs1)C12CC3CC(CC(C3)C1)C2	23%
Cc1ccc(C(=O)N2CCN(c3ccccc3Cl)CC2)cc1[N+](=O)[O-]	61.3%
CCc1cccc(CC)c1NC(=S)NC(C)c1ccccc1 (configuration not stated)	13.3%
Cc1ccc2nc(-c3ccc(NC(=S)NC4CC(C)(C)NC(C)(C)C4)cc3)sc2c1	59.9%
O=C(Nc1nnc(-c2ccc3c(c2)CCCC3)o1)c1ccccc1	73.9%
CC(C(=O)NC(=O)NC1CCCCC1)N1CCN(C(c2ccccc2)c2ccccc2)CC1 (configuration not stated)	51.9%
N#Cc1sc2nc(N3CCCCC3)c3c(c2c1N)CCCC3	4%
COc1ccc(-n2cccc2/C=C/[N+](=O)[O-])cc1	58.8%
COc1ccc(-c2csc(NC(=O)C3COc4ccccc4O3)n2)cc1OC (configuration not stated)	55.2%
O=C(CCc1ccccc1)Nc1nnc(-c2ccc3c(c2)CCCC3)o1	0.5%
CCC(=NCc1ccc(Cl)c(Cl)c1)c1nc(-c2ccco2)oc1O	49%
CCN1CCN(c2cc(-c3ccccc3)nc3cc(-c4cccc(F)c4)nn23)CC1	78.9%
CC(C)(C)c1ccc(CSc2nnc(-c3ccccn3)n2Cc2ccco2)cc1	6.05%
COc1ccc(CNc2oc(COc3ccc(Cl)cc3)nc2C#N)cc1	48.3%
Cc1ccc(-c2nc(CSc3nc4ccccc4c(=O)n3CCO)cs2)cc1	23.5%
O=[N+]([O-])c1ccc(S(=O)(=O)Nc2ccc(-c3csc(-c4ccccc4)n3)cc2)cc1	68.8%
S=C(NCCc1ccccc1)N/N=C/c1ccccc1Cl	26%

Compound	inhibition
COc1cccc(CC(=O)Nc2ccc3nc(C)sc3c2)c1	49.7%
CCNC(=S)N/N=C(\C)c1ccc2ccccc2c1OC(F)F	62.7%
c1ccc(-c2ccc(C(c3ccccc3)n3ccnc3)cc2)cc1 (configuration not stated)	51.8%
Cc1oc2ccc(OC(=O)c3cccs3)cc2c1C(=O)OC(C)C	63.5%
Cc1cc(C)cc(NC(=S)NCc2ccc3[nH]c4c(c3c2)CCCC4)c1	43.9%
COc1ccc(C(=O)c2c(C(F)(F)F)oc3c2C(=O)c2ccccc2C3=O)cc1	85.4%
Cc1cccc(CSCCNC(=S)Nc2ccccc2)c1	58.7%
Cc1ccc(Nc2nc(N3CCN(C)CC3)nc(N)c2[N+](=O)[O-])cc1C	63.8%
Cc1ccc(-c2nc(N)sc2-c2ccccc2)cc1C	48.5%
Cc1ccc(CNCC(O)(c2ccccc2)c2ccc(F)cc2)cc1 (configuration not stated)	10.4%
O=C(Nc1nnc(-c2ccc3c(c2)OCCO3)o1)c1ccc(Cc2ccccc2)cc1	32.4%
COc1cccc2cc(C(=O)N3CCc4ccccc43)c(=O)oc12	1.39%
OC(CSc1c(Cl)cccc1Cl)CN1CCN(c2ccccc2F)CC1 (configuration not stated)	54.7%
COc1cccc(OCCN2CCN(c3ncnc4c3cnn4-c3ccccc3)CC2)c1	41.8%
CN(NC(=S)Nc1ccc(OC(F)F)cc1)C(=S)Nc1ccc(OC(F)F)cc1	24.9%
O=C(Nc1ccc(OC(F)F)cc1)Nc1cccc(C(F)(F)F)c1	63.7%
S=c1[nH]nc(-c2ccccc2)n1/N=C/c1ccc(-c2ccccc2Cl)o1	10.5%
OCCCc1nc2n(n1)C(c1cccs1)C=C(c1ccc(Br)cc1)N2 (configuration not stated)	29%
CCN1/C(=C/c2ccc3cccc(C)c3[n+]2CC)Sc2ccccc21	60.2%
O=C(OCC1OC2OC3(CCCCC3)OC2C2OC3(CCCCC3)OC12)c1ccccc1 (configuration not stated)	44%
Cc1cc(O)c(NC(=S)NC(=O)c2ccc(-c3ccc(Cl)cc3)o2)cc1C	57.6%
CCC(OC(=O)c1cc2sccc2n1C)C(=O)NCc1ccco1 (configuration not stated)	43.8%

Compound	inhibition
Cc1cccc2nc(-c3ccccc3)nc(N3CCC(O)(c4ccc(Cl)cc4)CC3)c12	12.4%
CCCNC(=O)c1ccc2c(c1)C1C3CCC(C3)C1C(c1ccccc1)N2 (configuration not stated)	24.1%
Cc1ccc(C(=O)OCCN2CCN(c3ncc(C(F)(F)F)cc3Cl)CC2)cc1	61.5%
Cc1cc(C)cc(NC(=S)N(Cc2ccc(Br)cc2)Cc2ccc(C(=O)O)cc2)c1	30.2%
COC(=O)CSc1nc(SCc2ccc(C)cc2)nc2c1CCCC2	56.6%
CN1C=CC=C/C1=C1\SC(=S)N(c2ccccc2)C1=O	-4.2%
O=c1c2ccccc2c(-c2ccc(O)cc2)nn1-c1cccc(C(F)(F)F)c1	81.6%
COc1ccc(/C=C/C(=O)N2CCN(c3ccccn3)CC2)c2ccccc12	10.9%
O=C(COC(=O)CCCOc1ccc(Cl)cc1Cl)Nc1cccc(Cl)c1	-8.87%
COC(=O)C(CC(=O)c1ccc(Cl)cc1)c1ccc(C(C)C)cc1 (configuration not stated)	43.6%
O=C(NCC(c1ccco1)N1CCCCC1)c1ccc(OCc2ccccc2)cc1 (configuration not stated)	63.7%
Cc1ccc(Nc2ccc(-n3ccnc3)nn2)cc1C	62.5%
O=C1CC(c2cccc(Br)c2)c2cc3c(cc2N1)CCC3 (configuration not stated)	64.2%
CCCOC(=O)c1ccc(Oc2cn[nH]c2-c2ccc(OC)cc2O)cc1	-18.2%
CC(Oc1ccc(Cl)cc1Cl)c1ccnc2nc(N3CCOCC3)nn12 (configuration not stated)	45.1%
Cc1cccc(N2CCN(C(=O)c3c(C)nn(Cc4ccccc4Cl)c3C)CC2)c1C	11.9%
COc1ccc(-c2nc(N)nc(C)c2Oc2ccccc2Br)c(O)c1	80%
COc1ccc(-n2cc(-c3ccccc3)c3c(N4CC(C)OC(C)C4)ncnc32)cc1 (configuration not stated)	6.04%
CC12COC3(C(=O)Nc4ccc5ccccc5c4)CC1CCC32C (configuration not stated)	46.8%
Nc1ccc2c(c1)C(=O)C(=O)c1ccccc1-2	93.5%
CC1CC2=C(NC(=S)NC2c2cccc(F)c2)/C(=C/c2cccc(F)c2)C1 (configuration not stated)	-0.58%
O=C(C1CCCCC1)N(Cc1ccccc1)c1ccccn1	-9.75%

Compound	inhibition
FC(F)Sc1ccc(NC(=S)NCC2CCCCC2)cc1	63.3%
COC(=O)c1c(NC(NC(=O)C(C)C)C(Cl)(Cl)Cl)sc2c1CCC2 (configuration not stated)	23.4%
C[C@H]1CC[C@H]2C(=O)N3[C@H](c4ccccc4Br)[C@@H](C)CC[C@H]3C(=O)N2[C@@H]1c1ccccc1Br	25.4%
COc1cccc(-c2nc(-c3ccc(NC(=O)c4cccs4)cc3)no2)c1	-3.65%
S=C(Nc1ccc(Oc2ccccc2)cc1)NC1CCCCC1	24.4%
COc1ccccc1/C=C\C=N\n1c(-c2ccc(Cl)cc2Cl)n[nH]c1=S	14.6%
CCS(=O)(=O)CCSc1nc2c(cc1C#N)CCCC2	35.4%
COc1ccc(C(=O)/C=C/c2ccc(O)cc2)c(O)c1CC=C(C)C	73.2%
CC1=C(C)/C(=N\OS(=O)(=O)c2ccccc2)C=CC1=O	79.3%
Cc1ccc(COc2ccccc2C(=S)N2CCCC2)cc1	38.4%
CCn1cc(C(=O)OCC(=O)c2cc(C)n(-c3cccc(C(F)(F)F)c3)c2C)c(=O)c2ccc(C)nc21	0.14%
CN1CCN(C(=O)c2cc(COc3c(F)cccc3F)on2)CC1c1ccccc1 (configuration not stated)	73%
CCOC(=O)N1CCN(S(=O)(=O)c2ccc(C)c(C)c2)CC1	-2.03%
COc1cnc(-c2ccccn2)nc1Sc1ccc(F)cc1	64.7%
Cc1cc(C)c(OC2(c3ccccc3)OC(=O)c3ccccc32)c(C)c1 (configuration not stated)	44.5%
Cc1ccc(CN=Cc2[nH]c3ccc(Br)c(Cl)c3c2O)cc1	39.8%
COC(=O)c1ccc(NC(=O)Nc2ccc(F)c(Cl)c2)cc1	7.47%
Cc1csc(NC(=O)c2c(O)c3c(n(CC(C)C)c2=O)CCCC3)n1	-10.7%
Cc1cccc(N/N=C(\C=N\N)C(=O)c2ccc(Br)cc2)c1	-4.1%
COc1ccc(C)cc1N(C(=O)c1ccc(F)cc1)c1nc2ccccc2s1	22%
Cc1cccc(C)c1OCCOC(=O)c1n[nH]c2ccccc12	32.7%
O=C(Nc1ccc(N2CCCCC2)cc1)c1ccccn1	41.5%

Compound	inhibition
C(=N\NC1=Nc2cccc3cccc1c23)/c1ccccn1	36%
CCOC(=O)c1c(-c2ccccc2)csc1NC(=O)CSc1nncs1	26.8%
C/C(=N\N=C(/N)SC1CC(=O)N(c2cccc(Cl)c2)C1=O)c1cccs1 (configuration not stated)	18.5%
CCOC(=O)c1sc(NC(=O)/C=C/c2cnn(C)c2C)c(C(=O)OC(C)C)c1C	-7.06%
COc1ccc2c(c1)CCc1c(C(=O)N3CC4(C)CC3CC(C)(C)C4)noc1-2 (configuration not stated)	29.1%
Cc1ccc(C(C)C)c(OCc2ccc(C(=O)N/N=C/c3ccc(O)cc3O)cc2)c1	0.49%
CC1CCCC(NC(=O)CNC(=S)N(Cc2ccccc2)Cc2cccs2)C1C (configuration not stated)	28.4%
CCOC(=O)c1c(-c2ccc(C)o2)csc1NC(=O)CN1CCCCC1	76.5%
Cc1ccccc1N1CCN(c2ncnc3scc(-c4cccs4)c23)CC1	-1.42%
Cc1ccc(NC(=S)Nc2ccc(Cl)c(Cl)c2)c(OC(F)F)c1	79.8%
CCCCCOc1ccc(CSC(=N)N)cc1[N+](=O)[O-]	59.4%
COc1ccc(C(=O)N2c3cc4c(cc3C(C)=CC2(C)C)OCO4)cc1	18.5%
Cc1ccc(C(NC(=O)NC(C)c2ccccc2)C(Cl)(Cl)Cl)cc1F (configuration not stated)	0.88%
Cc1cccc(N(CC(O)CON=C2c3ccccc3-c3ccccc32)S(C)(=O)=O)c1 (configuration not stated)	20.4%
O=C(CN1CCc2ccccc2C1)Nc1ccccc1N1CCCCCC1	0.61%
CCOC(=O)c1cc([N+](=O)[O-])c([N+](=O)[O-])cc1NC(C)=O	75.2%
CCC(C)Nc1c([N+](=O)[O-])cc(C)cc1[N+](=O)[O-] (configuration not stated)	7.39%
O=C(Nc1ccc(OC(F)(F)F)cc1)Nc1cccc([N+](=O)[O-])c1	77.7%
Cc1cccc(Nc2nc(N)c([N+](=O)[O-])c(N3CCCC(C)C3)n2)c1 (configuration not stated)	64.1%
